Measured values as given in patent US8815869B2, “Lactam acetamides as calcium channel blockers” (AbbVie Inc., priority 2010, dated 2014).

Target: human Cav2.2 (Homo sapiens, UniProt Q00975)
Assay: FLIPR assessment of calcium channel activity (Ca2+ influx, IMR32 cells)
Assay type: cell-based
Conditions: IMR32 cells endogenously expressing human Cav2.2; 60 minute pre-incubation; 2 μM nifedipine; depolarized with 80 mM KCl
Protocol: (i) In Vitro Methods—Assessment of Calcium Channel Activity Using FLIPR
The IMR32 cells were maintained in MEM media containing 10% (v/v) FBS, 1% (v/v) antibiotic/antimitotic, 1% (v/v) sodium pyruvate and 1% (v/v) MEM NEAA. Following dissociation in 0.05% (v/v) trypsin/EDTA, cells were seeded into black 1×96-well plates (Corning Cellbind) at a density of 1-1.2×10^5 cells/well and incubated in the maintenance media above for 48 hours at 37° C. Immediately prior to performing the assay the media was removed and cells were loaded for 1.5 hours with 1× Calcium 4 dye prepared in HBSS (137 mM NaCl, 5.4 mM KCl, 0.25 mM Na2HPO4, 0.44 mM KH2PO4, 1.3 mM CaCl2, 1 mM MgSO4, 4.2 mM NaHCO3) containing HEPES pH 7.4 at room temperature. After dye loading and a subsequent 60 minute pre-incubation with compounds (full log dilutions from 10 μM to 0.1 nM) in the presence of 1.3 mM CaCl2 and 2 μM nifedipine to block endogenous L-type channels, the external Ca^2+ concentration was increased to 5 mM CaCl2 and the cells concomitantly depolarized with 80 mM KCl to assay channel activity. To determine the IC50 values, the percent inhibition of the compound at each concentration was determined relative to the activity in the absence of inhibitor, and data was fitted using non-linear regression sigmoidal dose response curve analysis with GraphPad Prism®.

Structure (SMILES)	IC50 [µM]
O=C(CN1CCCC(c2ccccc2)(c2ccccc2)C1=O)N1CC2CNCC2C1 (stereo not shown) [Example 6, 1-(2-Hexahydropyrrolo[3,4-c]pyrrol-2(1H)-yl-2-oxoethyl)-3,3-diphenylpiperidin-2-one]	> 30
O=C(CN1CCC(c2ccc(F)cc2)(c2ccc(F)cc2)C1=O)N(C1CCCC1)C1CCNCC1 [Example 19, 2-[3,3-Bis(4-fluorophenyl)-2-oxopyrrolidin-1-yl]-N-cyclopentyl-N-piperidin-4-ylacetamide]	4.3
O=C(CN1CCC(c2ccc(F)cc2)(c2ccc(F)cc2)C1=O)N1CCN2CCC[C@@H]2C1 [Example 15, 3,3-Bis(4-fluorophenyl)-1-{2-[(8aR)-hexahydropyrrolo[1,2-a]pyrazin-2(1H)-yl]-2-oxoethyl}pyrrolidin-2-one]	12.9
O=C(CN1CCCC(c2ccccc2)(c2ccccc2)C1=O)NC1CNC1 [Example 11, N-Azetidin-3-yl-2-(2-oxo-3,3-diphenylpiperidin-1-yl)acetamide]	> 30
CC1(C)C(=O)NCCN1C(=O)CN1CCCC(c2ccccc2)(c2ccccc2)C1=O [Example 2, 3,3-Dimethyl-4-[(2-oxo-3,3-diphenylpiperidin-1-yl)acetyl]piperazin-2-one]	> 30
O=C(CN1CCCC(c2ccccc2)(c2ccccc2)C1=O)N1CCNCC1 [Example 12, 1-(2-Oxo-2-piperazin-1-ylethyl)-3,3-diphenylpiperidin-2-one]	15
O=C(CN1CCC(c2ccc(F)cc2)(c2ccc(F)cc2)C1=O)N1CC2(CCNCC2)C1 [Example 20, 1-[2-(2,7-Diazaspiro[3.5]non-2-yl)-2-oxoethyl]-3,3-bis(4-fluorophenyl)pyrrolidin-2-one]	13.1
O=C(CN1CCC(c2ccc(F)cc2)(c2ccc(F)cc2)C1=O)N(C1CCNCC1)C1CC1 [Example 17, 2-[3,3-Bis(4-fluorophenyl)-2-oxopyrrolidin-1-yl]-N-cyclopropyl-N-piperidin-4-ylacetamide]	12.9
O=C(CN1CCCC(c2ccccc2)(c2ccccc2)C1=O)NC[C@@H]1CCCN1 [Example 9, 2-(2-Oxo-3,3-diphenylpiperidin-1-yl)-N-[(2S)-pyrrolidin-2-ylmethyl]acetamide]	> 30
O=C(CN1CCC(c2ccc(F)cc2)(c2ccc(F)cc2)C1=O)N1CCNCC1 [Example 14, 3,3-Bis(4-fluorophenyl)-1-(2-oxo-2-piperazin-1-ylethyl)pyrrolidin-2-one]	9.22
O=C(CN1CCCC(c2ccc(F)cc2)(c2ccc(F)cc2)C1=O)N1CCNCC1 [Example 23, 3,3-Bis(4-fluorophenyl)-1-(2-oxo-2-piperazin-1-ylethyl)piperidin-2-one]	2.96
O=C(CN1CCC(c2ccc(Cl)cc2)(c2ccc(Cl)cc2)C1=O)N1CCNCC1 [Example 25, 3,3-Bis(4-chlorophenyl)-1-(2-oxo-2-piperazin-1-ylethyl)pyrrolidin-2-one]	8.89
O=C(CN1CCC(c2ccc(F)cc2)(c2ccc(F)cc2)C1=O)N(C1CCC1)C1CCNCC1 [Example 18, 2-[3,3-Bis(4-fluorophenyl)-2-oxopyrrolidin-1-yl]-N-cyclobutyl-N-piperidin-4-ylacetamide]	5.06
O=C(CN1CCCC(c2ccccc2)(c2ccccc2)C1=O)N1C[C@@H]2CN[C@@H](C2)C1 (relative stereo) [Example 13, 1-{2-[(1S*,5S*)-3,6-Diazabicyclo[3.2.1]oct-3-yl]-2-oxoethyl}-3,3-diphenylpiperidin-2-one]	9.78
O=C(CN1CCC(c2ccc(F)cc2)(c2ccc(F)cc2)C1=O)NC1CNC1 [Example 16, N-Azetidin-3-yl-2-[3,3-bis(4-fluorophenyl)-2-oxopyrrolidin-1-yl]acetamide]	5.54
O=C(CN1CCCC(c2ccccc2)(c2ccccc2)C1=O)N1C[C@H]2CCCN[C@H]2C1 [Example 4, 1-{2-[(4aR,7aR)-Octahydro-6H-pyrrolo[3,4-b]pyridin-6-yl]-2-oxoethyl}-3,3-diphenylpiperidin-2-one]	11.8
O=C1CN(C(=O)CN2CCCC(c3ccccc3)(c3ccccc3)C2=O)CCN1 [Example 10, 4-[(2-Oxo-3,3-diphenylpiperidin-1-yl)acetyl]piperazin-2-one]	> 30
O=C(CN1CCCC(c2ccccc2)(c2ccccc2)C1=O)N1CCC[C@H]2CNC[C@H]21 [Example 5, 1-{2-[(4aS,7aS)-Octahydro-1H-pyrrolo[3,4-b]pyridin-1-yl]-2-oxoethyl}-3,3-diphenylpiperidin-2-one]	13.5
O=C(CN1CCCC(c2ccccc2)(c2ccccc2)C1=O)NC1CCNCC1 [Example 1, 2-(2-Oxo-3,3-diphenylpiperidin-1-yl)-N-(piperidin-4-yl)acetamide]	> 30
O=C(CN1CCC(c2ccccc2)(c2ccccc2)C1=O)N1CCN(C2CCCCC2)CC1 [Example 21, 1-[2-(4-Cyclohexylpiperazin-1-yl)-2-oxoethyl]-3,3-diphenylpyrrolidin-2-one]	3.86
O=C(CN1CCCC(c2ccccc2)(c2ccccc2)C1=O)N1CC2(CCNCC2)C1 [Example 7, 1-[2-(2,7-Diazaspiro[3.5]non-2-yl)-2-oxoethyl]-3,3-diphenylpiperidin-2-one]	> 30
O=C(CN1CCCC(c2ccccc2)(c2ccccc2)C1=O)NC[C@H]1CCCN1 [Example 8, 2-(2-Oxo-3,3-diphenylpiperidin-1-yl)-N-[(2R)-pyrrolidin-2-ylmethyl]acetamide]	> 9
O=C(CN1CCCC(c2ccccc2)(c2ccccc2)C1=O)N1C[C@@H]2CCCN[C@@H]2C1 [Example 3, 1-{2-[(4aS,7aS)-Octahydro-6H-pyrrolo[3,4-b]pyridin-6-yl]-2-oxoethyl}-3,3-diphenylpiperidin-2-one]	10.1
CN1CCN(C(=O)CN2CCCC(c3ccccc3)(c3ccccc3)C2=O)CC1 [Example 22, 1-[2-(4-Methylpiperazin-1-yl)-2-oxoethyl]-3,3-diphenylpiperidin-2-one]	> 30
O=C(CN1CCC(c2ccccc2)(c2ccccc2)C1=O)N1CCNCC1 [Example 24, 1-(2-Oxo-2-piperazin-1-ylethyl)-3,3-diphenylpyrrolidin-2-one]	16.4
